Test results published in PubChem BioAssay AID504832 (National Center for Advancing Translational Sciences (NCATS), 2011).
The whole screen tested about 310,000 compounds, of which about 18,000 (5.8%) were called active. Inconclusive means that the source gave no clear call. Such entries were picked first, then a sample of the others. Calls follow the shape of the dose curve; as a rule, active = well fitted inhibition curve with a large enough effect; inconclusive = small, poorly fitted or top-dose-only effect, or another doubt; inactive = no such curve, though single readings can be large or run the other way. Potencies of inconclusive entries are left out as doubtful fits.

test: Primary qHTS for delayed death inhibitors of the malarial parasite plastid, 48 hour incubation; conditions: P. falciparum luciferase growth in erythrocytes; series mostly up to 28.7 µM; activity change, negative = inhibition: at the top concentration
Summary of the method: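 Luciferase-expressing parasites in RBCs, 2% Hct / 0.1% parasitemia final; RPMI 1640 + 0.5% Albumax; 37 C, 5% CO2, one generation; luminescence read-out, lower signal = inhibition.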
% is scaled to controls: 0 for no effect and ±100 for the full control effect; potency is read from the fitted curve at half-maximal effect; tags tell the direction and shape of the fitted curve.

| SMILES | Potency | activity change, negative = inhibition |
| --- | --- | --- |
| Cc1cc(N2CCN(C)CC2)nc2ccc(NC(=S)NCCN3CCc4ccccc4C3)cc12 | active: 9.28 µM |  |
| COc1ccc(NC2=Nc3cccc4cccc2c34)cc1 | inconclusive [inhibitor, single point] |  |
| Cc1ccc(S(=O)(=O)CCC(=O)OCC(=O)NC(C)c2ccccc2)cc1 (centres undefined) |  | inactive: 0.918% |
| O=C(Nc1ccccc1)C1=C[C@@H](c2coc3ccccc3c2=O)C[C@@H](OCCCCO)O1 | inconclusive [inhibitor, single point] |  |
| CCOC(=O)C(=O)Nc1ncc(Cl)s1 |  | inactive: 12% |
| N#CCCSc1ncnc2c1oc1ccccc12 | inconclusive [inhibitor, single point] |  |
| COc1ccc(NC(=O)Cn2c(-c3ccccc3)cc(C(C)=O)c2C)c(OC)c1 |  | inactive: -15.2% |
| CCN1C(=O)[C@@H]2[C@H](C1=O)[C@@H]1C(=O)Nc3ccccc3C(=O)N1[C@@H]2c1ccc(Br)cc1 | inconclusive [inhibitor, single point] |  |
| O=C(NC1CCCCC1)C(c1ccc(F)cc1)N(CCCN1CCOCC1)C(=O)c1ccc(CN2CCOCC2)o1 (centres undefined) | inconclusive [inhibitor, full curve, poor fit] |  |
| COc1cc(CNc2ncn[nH]2)ccc1OCc1cccc(C)c1 |  | inactive: 117% |
| O=C(NC(c1ccc(Cl)cc1)c1cc(Cl)c2cccnc2c1O)c1cccnc1 (centres undefined) | active: 1.17 µM |  |
| CC(C(=O)NC1CCCC1)N(C(=O)c1ccc(-c2ccccc2)[nH]1)c1ccccc1F (centres undefined) | active: 13.1 µM |  |
| CCCCn1nc2cc(C(=O)N(CC)c3ccc(OC)cc3)ccc2c1OCC | inconclusive [inhibitor, partial curve, poor fit] |  |
| Cc1ccc(-c2cc(C(=O)NC3=NCCS3)c3ccccc3n2)cc1C | inconclusive [inhibitor, single point] |  |
| CC(=O)N1CCC(N(CCN2CCOCC2)C(=S)Nc2ccc(C)cc2)CC1 |  | inactive: 21.6% |
| CCc1nc(NCc2ccc3c(c2)OCO3)c2oc3ccccc3c2n1 | inconclusive [inhibitor, partial curve, poor fit] |  |
| COc1ccc(CNC(=O)CN(C(=O)CCC(=O)Nc2ccccn2)c2ccccc2OC)cc1 | inconclusive [inhibitor, partial curve, poor fit] |  |
| O=C(CCl)N1N=C(c2ccco2)CC1c1ccco1 (centres undefined) | active: 13.1 µM |  |
| COC(=O)CCCCCNc1ccc(C(=O)OC)cc1N | inconclusive [inhibitor, single point] |  |
| Cn1cnc([N+](=O)[O-])c1N=C(N)N |  | inactive: 4.32% |
| CC1CC(C)CN(S(=O)(=O)N2CCC(C(=O)NCc3ccco3)CC2)C1 (centres undefined) | inconclusive [inhibitor, single point] |  |
| COc1ccccc1Oc1ccccc1[N+](=O)[O-] | inconclusive [inhibitor, full curve] |  |

| SMILES | Potency | activity change, negative = inhibition |
| --- | --- | --- |
| CCCCOC(=O)CSC1=C(C#N)C(c2cccnc2)C(C(=O)OCC)=C(c2ccccc2)N1 (centres undefined) | inconclusive [inhibitor, full curve, poor fit] |  |
| O=C(COC(=O)c1ccccc1Cl)NC(=O)NCc1ccccc1 |  | inactive: 10.4% |
| CC1CCN(c2ccc(-c3ccc(NC(=O)c4ccco4)cc3)nn2)CC1 | inconclusive [inhibitor, full curve] |  |
| COc1ccc(S(=O)(=O)Nc2ccc(-c3ccc(N4CCCC4)nn3)cc2)cc1C | inconclusive [inhibitor, partial curve] |  |
| COc1ccccc1NC(=O)CN(Cc1ccco1)C(=O)c1ccc(=O)[nH]c1 |  | inactive: 24.8% |
| COc1ccc(N2C3=C(C(=O)CC(C)(C)C3)C(c3ccccc3OC)C3=C2CC(C)(C)CC3=O)cc1 | inconclusive [inhibitor, full curve] |  |
| Cc1cccc(NC(=O)Cn2cnc3c(oc4ccccc43)c2=O)c1 |  | inactive: 6.02% |
| NC(=O)c1cccc(C[C@H](C(=O)O)N2C(=O)c3ccc(C(=O)O)cc3C2=O)c1 | inconclusive [inhibitor, partial curve, poor fit] |  |
| O=C(Cc1ncc(C(F)(F)F)cc1Cl)N1CCN(c2ccccn2)CC1 |  | inactive: 19.4% |
| COc1ccccc1OCC(O)CO (centres undefined) |  | inactive: 13.1% |
| CC(=O)N1CCSc2ccc(S(=O)(=O)Nc3ccccc3C)cc21 | inconclusive [inhibitor, single point] |  |
| COC(=O)c1[nH]c2ccc(F)cc2c1NC(=O)CCN1CC(C)OC(C)C1 (centres undefined) | inconclusive [inhibitor, full curve, poor fit] |  |
| COc1cccc(CNC(=O)CCCn2nc(C)c3c(C)n(-c4ccccc4)nc3c2=O)c1 | inconclusive [inhibitor, partial curve, poor fit] |  |
| Fc1cccc(-c2cc3nc(-c4ccccc4)cc(N4CCC5(CC4)OCCO5)n3n2)c1 | active: 8.28 µM |  |
| Cc1ccc2cc(CN(CC3CCCO3)S(=O)(=O)c3ccccc3)c3nnnn3c2c1 (centres undefined) | inconclusive [inhibitor, single point] |  |
| COc1ccc(CN2C(=O)CC(C(=O)NCCc3ccc(S(N)(=O)=O)cc3)SC2=Nc2ccccc2)cc1 (centres undefined) | inconclusive [inhibitor, partial curve, poor fit] |  |
| COc1ccccc1NC(=O)CSc1nc(=O)n(CCN(C)C)c2c1CCCC2 | inconclusive [inhibitor, single point] |  |
| CCOc1ccccc1NC(=O)CCn1nc(C)c(S(=O)(=O)N2CCCCC2)c1C | inconclusive [inhibitor, partial curve, poor fit] |  |
| CC(C)(C)OC(=O)NNC1CC(=O)N(c2ccccc2F)C1=O (centres undefined) | inconclusive [inhibitor, full curve, poor fit] |  |
| Cc1ccc(C(C)C)c(OCC(=O)NN=C2CCCC2)c1 |  | inactive: -20.1% |
| CC1Cc2ccccc2N1Cc1cccc(S(=O)(=O)N(C)C)c1 (centres undefined) | inconclusive [inhibitor, partial curve, poor fit] |  |
| CCN(CC)CCNC(=O)c1cccc(NC(=O)C(=O)c2ccccc2NC(C)=O)c1 | inconclusive [inhibitor, single point] |  |
